In patent publication US20260234232A1 (QUAERITE BIOPHARM RESEARCH BEIJING, published 2026):

What was measured:
human VEGFA165 [1] = target: T1, human VEGFA165 (human, UniProt P15692-4 27-191); experiment: ELISA, coated human VEGFA165, anti-human IgG detection
T1 construct: Bought protein from two suppliers, treated as one molecule; the supplier is named under assay; also called antigen VEGFA
T1 sequence (looked up): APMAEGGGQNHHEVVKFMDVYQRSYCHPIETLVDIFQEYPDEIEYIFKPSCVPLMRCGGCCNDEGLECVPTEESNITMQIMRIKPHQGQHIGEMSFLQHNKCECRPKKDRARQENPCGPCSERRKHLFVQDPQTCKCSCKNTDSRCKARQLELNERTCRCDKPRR
Method: The absorbance at 450 nm (OD450) was measured using a microplate reader.

human VEGFA165 [2] = target: T1, human VEGFA165; experiment: SPR Biacore 8K, VEGFA165 (Sino Biological) on CM5, low immobilization, 1:1 fit
Method: (§1) In a multi-cycle mode, the chip was regenerated with 100 mM hydrochloric acid.

human VEGFA165 [3] = target: T1, human VEGFA165; experiment: cell-based or functional assay
human VEGFA165 [4] = target: T1, human VEGFA165; experiment: ELISA, coated human VEGFA165, anti-human IgG detection; remark: listed apart in the source
human VEGFA165 [5] = target: T1, human VEGFA165; experiment: SPR, KD of Tables 23 and 24 against aflibercept
Method: as §1

Mouse VEGFA164 = target: T2, Mouse VEGFA164 (mouse, UniProt Q00731-2 27-190); experiment: ELISA, coated mouse VEGFA164, anti-human IgG detection
T2 construct: Bought
T2 sequence (looked up): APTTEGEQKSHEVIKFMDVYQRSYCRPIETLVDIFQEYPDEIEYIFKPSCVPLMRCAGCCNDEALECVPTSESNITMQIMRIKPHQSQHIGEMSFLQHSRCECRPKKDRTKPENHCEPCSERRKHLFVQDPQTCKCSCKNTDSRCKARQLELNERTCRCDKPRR

human VEGFA165 [6] = target: T1, human VEGFA165; experiment: SPR Biacore 8K, VEGFA165 (GenScript) on CM5, low immobilization, 1:1 fit
Rabbit VEGFA121 = target: T3, Rabbit VEGFA121 (rabbit); experiment: ELISA, coated rabbit VEGFA121, anti-human IgG detection
T3 construct: Expressed in 293F cells with its own signal peptide, purified on Ni beads
T3 chain: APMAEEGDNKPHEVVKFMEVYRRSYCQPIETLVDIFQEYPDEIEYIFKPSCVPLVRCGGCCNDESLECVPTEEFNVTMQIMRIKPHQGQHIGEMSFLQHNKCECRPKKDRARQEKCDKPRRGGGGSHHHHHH

human VEGFA165 [7] = target: T1, human VEGFA165; experiment: cell-based or functional assay; remark: listed apart in the source
Rat VEGFA164 = target: T4, Rat VEGFA164 (rat, UniProt P16612-2 27-190); experiment: ELISA, coated rat VEGFA164, anti-human IgG detection
T4 construct: Bought
T4 sequence (looked up): T2 sequence (looked up) with S10A, I14V, I75V

human VEGFA165 [8] = target: T1, human VEGFA165; experiment: ELISA, coated human VEGFA165, anti-His detection
Method: Antigen human VEGFA165 (label-free, purchased from Sino Biological, Cat. No.: HPLC-10008-HNAH, hereinafter referred to as VEGFA) was diluted with ELISA coating buffer to a final concentration of 0.3 μg/mL and added to a microplate at 100 μL/well for coating at 4° C. overnight. […] The solution used for antibody dilution was PBS containing 0.1% Tween-20 (pH 7.4), i.e., PBST. After being incubated at 37° C. for 1 h, the microplate was washed 3 times with PBST, and a dilution of His-Tag murine monoclonal antibody (purchased from Proteintech, Cat. No.: 66005-1-Ig) was added. The plate was further incubated at 37° C. for 1 h and washed again. Subsequently, a dilution of HRP-labeled goat anti-mouse IgG antibody (HRP-conjugated Affinipure Goat Anti-Mouse IgG (H+L), purchased from Proteintech, Cat. No.: SA00001-1) was added, and the plate was incubated at room temperature for 45 min. After the plate was washed, 100 μL of TMB (purchased from Tiangen Biotech, Cat. No.: PA107-01) was added to each well for color development at 37° C. for 15 min, followed by the addition of 50 μL of stopping solution. The absorbance at 450 nm (OD450) was measured using a microplate reader.

human VEGFA165 [9] = target: T1, human VEGFA165; experiment: SPR Biacore 8K, fusion protein captured on Protein A chip, VEGFA165 (GenScript) analyte, 1:1 fit

B1: 2V1-3m-3GS-Fc (Fc fusion)
chain: EVQLVESGGGLVQPGGSLRLSCAASGRTFSSYTMGWFRQAPGKEREFVVAISKGGYKYDSVSLEARFTISRDNAKNTVYLQMNSLRPEDTAVYYCAATRAYGSSRLRLADTYEYWGQGTLVTVSSGGSEVQLVESGGGLVQPGGSLRLSCAASGRTFSSYTMGWFRQAPGKEREFVVAISKGGYKYDSVSLEARFTISRDNAKNTVYLQMNSLRPEDTAVYYCAATRAYGSSRLRLADTYEYWGQGTLVTVSS[letters of human IgG1 Fc omitted]
notes: Protein A purified
Human VEGFA165 [1]
  EC50: 0.11 nM

B2: 2V1-2m-3GS-Fc (Fc fusion)
chain: B1 chain with A74S, A202S
notes: Protein A purified
Human VEGFA165 [1]
  EC50: 0.14 nM

B3: 2V1-DP-3GS-Fc (Fc fusion)
chain: B1 chain with A24V, A74S, A152V, A202S
notes: Protein A purified
Human VEGFA165 [1]
  EC50: 0.14 nM
Human VEGFA165 [2]
  Kd: 0.00384 nM
  koff: 4.38e-05 s⁻¹
  kon: 1.14e+07 M⁻¹ s⁻¹

B4: 2V1-SA1-3GS-Fc (Fc fusion)
chain: B1 chain with A24V, A152V
notes: Protein A purified
Human VEGFA165 [3]
  IC50 for inhibiting HUVEC proliferation, ratio to aflibercept: ~0.5 fold
Human VEGFA165 [4]
  EC50: 0.14 nM
Human VEGFA165 [5]
  KD as a fraction of aflibercept's KD: ~0.083 fold
Mouse VEGFA164
  binding result: no binding
Human VEGFA165 [1]
  EC50: 0.13 nM
Human VEGFA165 [6]
  Kd: 0.00468 nM
  koff: 3.95e-05 s⁻¹
  kon: 8.44e+06 M⁻¹ s⁻¹
Rabbit VEGFA121
  EC50: 23.7 nM
Human VEGFA165 [2]
  Kd: 0.00683 nM
  koff: 6.88e-05 s⁻¹
  kon: 1.01e+07 M⁻¹ s⁻¹
Human VEGFA165 [7]
  HUVEC proliferation inhibition IC50: 0.38 nM
Rat VEGFA164
  binding result: no binding

B5: 2V15-4m-3GS-Fc (Fc fusion)
chain: B1 chain with S30A, A97G, D110E, S158A, A225G, D238E
notes: Protein A purified
Human VEGFA165 [1]
  EC50: 0.17 nM

B6: 2V30-2H-2m-3GS-Fc (Fc fusion)
chain: B1 chain with S60A, A74S, D110K, S188A, A202S, D238K
notes: Protein A purified
Human VEGFA165 [1]
  EC50: 0.15 nM

B7: V15-9GS-PPCP-Fc (Fc fusion)
chain: QLQLVESGGGSVQPGGSLRLSCEVSGRTFASYTMGWFRQAPGKEREFVVAISKGGYKYDSVSLEARFTISKDNTKNTVYLQMNSLKPEDTAVYYCAGTRAYGSSRLRLAETYEYWGQGTQVTVSSGGGGSGGGS[letters of human IgG1 Fc omitted]
notes: Monovalent nanobody-Fc fusion, dimer through Fc
Human VEGFA165 [8]
  EC50: 0.35 nM

B8: V1-SA1-Fc-m1 (Fc fusion)
chain: EVQLVESGGGLVQPGGSLRLSCAVSGRTFSSYTMGWFRQAPGKEREFVVAISKGGYKYDSVSLEARFTISRDNAKNTVYLQMNSLRPEDTAVYYCAATRAYGSSRLRLADTYEYWGQGTLVTVSS[letters of human IgG1 Fc with changes omitted]
Human VEGFA165 [9]
  Kd: 0.148 nM
  koff: 0.00013 s⁻¹
  kon: 877000 M⁻¹ s⁻¹

B9: 2V1-SA1-NL-Fc (Fc fusion)
chain: EVQLVESGGGLVQPGGSLRLSCAVSGRTFSSYTMGWFRQAPGKEREFVVAISKGGYKYDSVSLEARFTISRDNAKNTVYLQMNSLRPEDTAVYYCAATRAYGSSRLRLADTYEYWGQGTLVTVSSEVQLVESGGGLVQPGGSLRLSCAVSGRTFSSYTMGWFRQAPGKEREFVVAISKGGYKYDSVSLEARFTISRDNAKNTVYLQMNSLRPEDTAVYYCAATRAYGSSRLRLADTYEYWGQGTLVTVSS[letters of human IgG1 Fc omitted]
notes: Protein A purified
Human VEGFA165 [1]
  EC50: 0.16 nM
Human VEGFA165 [2]
  Kd: 0.00353 nM
  koff: 4.55e-05 s⁻¹
  kon: 1.29e+07 M⁻¹ s⁻¹

B10: 2V13-4m-NL-Fc (Fc fusion)
chain: B9 chain with V24A, S30T, S60A, A97G, V149A, S155T, S185A, A222G
notes: Protein A purified
Human VEGFA165 [1]
  EC50: 0.13 nM

B11: 2V1-DP-9GS-Fc (Fc fusion)
chain: EVQLVESGGGLVQPGGSLRLSCAVSGRTFSSYTMGWFRQAPGKEREFVVAISKGGYKYDSVSLEARFTISRDNSKNTVYLQMNSLRPEDTAVYYCAATRAYGSSRLRLADTYEYWGQGTLVTVSSGGGGSGGGSEVQLVESGGGLVQPGGSLRLSCAVSGRTFSSYTMGWFRQAPGKEREFVVAISKGGYKYDSVSLEARFTISRDNSKNTVYLQMNSLRPEDTAVYYCAATRAYGSSRLRLADTYEYWGQGTLVTVSS[letters of human IgG1 Fc omitted]
notes: Protein A purified
Human VEGFA165 [1]
  EC50: 0.11 nM

Substitutions are numbered along the chain they refer to.
